Experiments:
[1] = biological target: T1, biglycan from bovine articular cartilage (Sigma) (bovine, UniProt P21809 38-369, proteoglycan; glycosaminoglycan chains on the core protein (sites not stated for this preparation)); experiment: solid phase binding assay, coated biglycan, 0.25 nM mWISP-1-IgG, OD 450 nm
T1 sequence (looked up): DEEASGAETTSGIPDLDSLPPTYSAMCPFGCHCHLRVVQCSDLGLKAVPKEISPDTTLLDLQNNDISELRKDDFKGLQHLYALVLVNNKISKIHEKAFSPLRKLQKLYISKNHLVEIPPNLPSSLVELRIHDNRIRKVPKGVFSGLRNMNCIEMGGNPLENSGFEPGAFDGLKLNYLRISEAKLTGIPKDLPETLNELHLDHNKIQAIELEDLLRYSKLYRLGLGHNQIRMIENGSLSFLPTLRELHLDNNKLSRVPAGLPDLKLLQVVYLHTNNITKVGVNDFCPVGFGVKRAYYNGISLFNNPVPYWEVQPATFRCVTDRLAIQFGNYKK
Experimental: (§1) FIGS. 5A-5B show WISP-1 binding to decorin and biglycan. In 5A, microtiter wells were coated with serial dilutions of decorin (filled circles) or biglycan (empty circles). Non-specific binding sites were saturated and 0.25 nM of mWISP-1-IgG was incubated for 2 hours. The wells were washed and incubated with horseradish peroxidase conjugated anti-human IgG Fc′ (2 μg/ml) for 1 hour. After 6 washes with PBS containing 0.05% Tween-20, a signal was developed by the incubation of a chromogenic substrate. The color development was stopped by the addition of 1 M phosphoric acid and the O.D. at 450 nm was measured. In 5B, fifty milliliters of human skin fibroblast conditioned media were coated in wells of microtiter plates. Non-specific binding sites were saturated and 0.25 nM of WISP-1-IgG was incubated in the presence of various concentrations of decorin (filled circles) or biglycan (empty circles) for 2 hours. The binding of mWISP-1-IgG was evaluated as described in 5A.
(§2) Decorin and biglycan were coated to microtiter wells overnight. Non-specific binding sites were saturated and 0.25 nM of mWISP-1-IgG was incubated for 2 hours. The wells were washed and incubated with horseradish peroxidase conjugated anti-human IgG Fc′ (2 μg/ml) for 1 hour. […] The color development was stopped by the addition of 1 M phosphoric acid and the O.D. at 450 nm was measured.

[2] = biological target: decorin from bovine articular cartilage (Sigma) (bovine, UniProt P21793 31-360, proteoglycan; dermatan sulfate glycosaminoglycan chain on the core protein (site not stated for this preparation)); experiment: solid phase binding assay, coated decorin, 0.25 nM mWISP-1-IgG, OD 450 nm
Experimental: as §1, §2

Sequence of UniProt P21793 (P21793 31-360 limits assumed): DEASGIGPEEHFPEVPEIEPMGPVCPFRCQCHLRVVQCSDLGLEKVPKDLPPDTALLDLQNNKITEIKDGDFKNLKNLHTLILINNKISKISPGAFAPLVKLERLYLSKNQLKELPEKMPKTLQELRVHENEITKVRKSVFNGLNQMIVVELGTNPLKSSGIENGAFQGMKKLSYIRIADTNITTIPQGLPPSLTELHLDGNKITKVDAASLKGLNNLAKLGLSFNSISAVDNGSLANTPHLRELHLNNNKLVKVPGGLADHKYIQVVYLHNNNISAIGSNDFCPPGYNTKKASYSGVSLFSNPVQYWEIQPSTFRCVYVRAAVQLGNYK

B1: mouse WISP-1-IgG (chimeric recombinant mouse WISP-1 bearing a human immunoglobulin Fc fragment tag) (Fc fusion)
chain: TALSPTPTTMTFTPAPLEETTTRPEFCKWPCECPQSPPRCPLGVSLITDGCECCKICAQQLGDNCTEAAICDPHRGLYCDYSGDRPRYAIGVCAQVVGVGCVLDGVRYTNGESFQPNCRYNCTCIDGTVGCTPLCLSPRPPRLWCRQPRHVRVPGQCCEQWVCDDDARRPRQTALLDTRAFAASGAVEQRYENCIAYTSPWSPCSTTCGLGISTRISNVNARCWPEQESRLCNLRPCDVDIQLHIKAGKKCLAVYQPEEATNFTLAGCVSTRTYRPKYCGVCTDNRCCIPYKSKTISVDFQCPEGPGFSRQVLWINACFCNLSCRNPNDIFADLESYPDFEEIANP[here human IgG1 Fc without letters]
notes: also called mWISP-1-IgG; WISP-1-Fc
- binding result [1]: binds
- binding result [2]: binds

From US20050054563A1 (Genentech, published 2005)
